# According to PMC4336329 (PLoS ONE, 2015):
# Among all 310,000 compounds or so, about 14,000 (4.5%) showed an effect of 50% or more. Effects have a minus sign here. Some of the results follow.
# Biological target: human ether-à-go-go-related gene (hERG) potassium channel (human, UniProt Q12809)
# Experiment: primary screen, population patch clamp on CHO cells stably expressing hERG
# 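Also: peak tail current of the secondary pulse compared with the same well before compound.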
# human ether-à-go-go-related gene (hERG) potassium channel, sequence (Q12809 whole entry, looked up): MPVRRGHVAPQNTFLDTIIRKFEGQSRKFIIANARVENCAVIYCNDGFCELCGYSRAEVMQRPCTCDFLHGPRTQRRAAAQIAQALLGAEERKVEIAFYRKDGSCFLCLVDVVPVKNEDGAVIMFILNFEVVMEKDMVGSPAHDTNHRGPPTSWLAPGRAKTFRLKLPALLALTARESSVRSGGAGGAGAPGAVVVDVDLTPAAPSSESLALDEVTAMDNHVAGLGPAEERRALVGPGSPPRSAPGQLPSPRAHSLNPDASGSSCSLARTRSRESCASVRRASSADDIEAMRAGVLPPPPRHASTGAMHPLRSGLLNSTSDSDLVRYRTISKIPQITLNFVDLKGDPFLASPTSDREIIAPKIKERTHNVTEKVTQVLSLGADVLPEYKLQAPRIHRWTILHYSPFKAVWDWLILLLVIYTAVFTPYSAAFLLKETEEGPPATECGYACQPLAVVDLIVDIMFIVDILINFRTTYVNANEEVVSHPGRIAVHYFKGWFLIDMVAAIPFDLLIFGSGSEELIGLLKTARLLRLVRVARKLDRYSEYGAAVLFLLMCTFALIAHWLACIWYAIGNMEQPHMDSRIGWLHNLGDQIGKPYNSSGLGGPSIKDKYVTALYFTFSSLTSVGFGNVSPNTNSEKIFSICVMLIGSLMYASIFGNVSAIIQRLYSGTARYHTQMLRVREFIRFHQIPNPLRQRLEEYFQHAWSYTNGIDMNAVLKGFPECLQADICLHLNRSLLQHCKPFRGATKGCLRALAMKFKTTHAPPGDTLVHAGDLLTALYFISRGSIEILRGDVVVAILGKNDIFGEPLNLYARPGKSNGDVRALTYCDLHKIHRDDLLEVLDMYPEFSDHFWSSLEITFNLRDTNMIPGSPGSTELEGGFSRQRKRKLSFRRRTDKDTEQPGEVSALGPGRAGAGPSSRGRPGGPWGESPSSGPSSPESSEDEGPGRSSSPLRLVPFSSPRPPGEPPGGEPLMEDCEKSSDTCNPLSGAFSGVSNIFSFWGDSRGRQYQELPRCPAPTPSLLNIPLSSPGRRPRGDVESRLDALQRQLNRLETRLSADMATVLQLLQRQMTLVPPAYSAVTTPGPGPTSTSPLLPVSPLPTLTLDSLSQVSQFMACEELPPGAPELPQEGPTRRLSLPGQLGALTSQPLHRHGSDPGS
row,SMILES,"hERG current change (%, negative = inhibition) at 10uM"
1,Cc1cccc(NC(=O)c2csnn2)n1,15.2%
2,Cc1cccc(N2CCN(C(=O)c3cn4ccccc4n3)CC2C)c1 (centres unmarked),8.18%
3,COc1ccc(O[C@H]2C=C[C@@H](c3ccccc3)O[C@@H]2COC(=O)CC/C(C)=N/OC[C@@H](O)[C@H]2O[C@@H]3OC(C)(C)O[C@@H]3[C@H]2O)cc1,-30.7%
4,CC(=O)Nc1ncc2c(n1)CC(c1ccco1)CC2=O (centres unmarked),-14.2%
5,Clc1ccc(-c2nc3cc(CN4CCCCC4)ccc3o2)cc1,-41.4%
6,O=C(Nc1ccc(Oc2ccccc2)cc1)c1ccco1,-26.2%
7,O=C1CC2c3ccccc3C1C1C(=O)N(CCO)C(=O)C21 (centres unmarked),21.5%
8,COCCCNc1nc2c(c(=O)[nH]c(=O)n2C)n1CC(O)COc1ccccc1 (centres unmarked),-14.9%
9,Cc1ccccc1NC(=O)N1CCc2ccccc2C1,6.13%
10,Cc1cc(C(F)(F)F)nc(SCC(=O)Nc2c(C)n(C)n(-c3ccccc3)c2=O)n1,-28.4%
11,CCN(CC)S(=O)(=O)c1cccc(NC(=O)/C=C/c2cccc([N+](=O)[O-])c2)c1,10.9%
12,O=C(O)C(=O)O.O=C(c1ccco1)N1CCN(Cc2ccccc2F)CC1,3.7%
13,Cc1c(NC(=O)c2cn3ccccc3n2)cccc1-n1cnnn1,7.21%
14,CCN1C(=O)C(CC(=O)NC2CCCCC2)N(CC)C1=O (centres unmarked),-3.06%
15,COc1ccc(NC(=O)CN(C)C(=O)C23CC4CC(CC(C4)C2)C3)cc1,-30.8%
16,COc1ccc(CNC(=O)CNC(=O)N2CC(=O)Nc3ccccc32)cc1,0.58%
17,N#CCCn1cc(C(=O)Nc2ccccn2)c(-c2ccccc2)n1,2.78%
18,COC(=O)c1sc(S(=O)(=O)NCC(=O)O)c(C(=O)OC)c1C,10.8%
19,O=C1CC(C(=O)NC2CCCCC2)C(c2ccccc2)O1 (centres unmarked),3.7%
20,COc1cc(OC)cc(C(=O)Nc2ccc(S(=O)(=O)Nc3cc(C)on3)cc2)c1,12.3%
21,CC(C)Oc1ccc(C(=O)NC2(C(F)(F)F)N=C3SCCN3C2=O)cc1 (centres unmarked),4.23%
22,Cc1cc(NC(=O)CSCC(=O)Nc2ccccc2N2CCCCC2)no1,2.52%

row,SMILES,"hERG current change (%, negative = inhibition) at 10uM"
1,CC(=O)Nc1ccc(-c2nc3ccccc3c(=O)o2)cc1,22.8%
2,O=C(NC(=S)Nc1ccc(Br)cc1)C1CCC1,-7.27%
3,O=C(NCCc1ccccc1)c1ccc(CS(=O)Cc2cccc(Cl)c2)o1 (centres unmarked),-6.23%
4,CCc1nc2ccccc2c(C(=O)NCc2ccccc2)c1C,-8.97%
5,Cc1cccc(Nc2ncnc(N)n2)c1,15.6%
6,COc1ccc2nc(C)cc(SCC(=O)[O-])c2c1.[Na+],24.1%
7,Cc1c(Cc2ccccc2)c(=O)oc2cc(OCc3ccc(C(=O)O)cc3)ccc12,-1.42%
8,COc1ccc(NS(=O)(=O)c2ccc(NC(=S)NC(=O)c3cccnc3)cc2)nn1,10.1%
9,Cc1cccc(N(C(=O)CNC(=O)c2ccco2)C(C(=O)NC2CCCCC2)c2cccnc2)c1 (centres unmarked),15.2%
10,COC(=O)c1ccc(NC(=O)CCN2CCCCC2)cc1.Cl,-47.9%
11,CC(C)CNS(=O)(=O)c1ccc(CCC(=O)NCc2ccc(Cl)cc2)cc1,-29.3%
12,CC(NC(=O)c1cccs1)C(c1cccs1)N1CCN(c2ccccc2)CC1 (centres unmarked),-1.86%
13,CC(CCc1ccccc1)NC(=O)CC(C)c1ccccc1 (centres unmarked),-13.1%
14,CC(=O)c1ccccc1OCCOc1ccccc1C(C)=O,-36.6%
15,CCOc1ccc2nc(C(=O)N3CCCC(C)C3)sc2c1 (centres unmarked),-2.28%
16,Cn1c(COc2ccc3ccccc3c2)nnc1SCC(N)=O,1.44%
17,COc1ccc(-c2cc3nc4c(c(N5CCC6(CC5)OCCO6)n3n2)CCC4)cc1,-4.92%
18,COC(=O)C1=CN(C(C)C)C=C(C(=O)OC)C1c1cc2c(cc1Br)OCO2,-17.4%
19,COc1ccc(C(CNC(=O)c2ccc(OCc3ccccc3)cc2)N2CCOCC2)cc1 (centres unmarked),-18.1%
20,Cc1ccc(S(=O)(=O)N(C)CCCC(=O)Nc2ccncc2)cc1,-63%
21,COCCN1C(=O)c2ccc(C(=O)NCc3ccco3)cc2C1=O,-7.98%
22,CCOC(=O)c1cc(=O)c2ccc(OCC(=O)Nc3ccccc3)cc2o1,4.88%
